# Measurements from paper PMC11911400, “Mechanism of ASF1 engagement by CDAN1” (Nature Communications, 2025).
# Chains of the proteins cited; added tags and fusions are not shown. Lines headed by an entry give the natural chain unless they say otherwise; changes in a name come on top.
# UniProt Q9Y294: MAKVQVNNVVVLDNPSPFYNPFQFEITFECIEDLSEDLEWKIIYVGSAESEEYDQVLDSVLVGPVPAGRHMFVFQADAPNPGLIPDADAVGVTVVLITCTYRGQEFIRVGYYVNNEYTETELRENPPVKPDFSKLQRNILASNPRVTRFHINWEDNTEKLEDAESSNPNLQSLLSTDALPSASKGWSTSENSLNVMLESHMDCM
# UniProt Q9NVP2: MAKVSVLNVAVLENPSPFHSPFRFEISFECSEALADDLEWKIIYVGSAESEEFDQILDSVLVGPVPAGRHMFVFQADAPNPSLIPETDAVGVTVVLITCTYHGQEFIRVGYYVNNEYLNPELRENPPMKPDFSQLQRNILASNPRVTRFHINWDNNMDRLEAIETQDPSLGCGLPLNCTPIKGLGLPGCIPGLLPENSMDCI
# Changes are numbered by the printed parent chain. In names and notes the source's numbering stands. These are yes or no findings as the source states them, for the method shown. Binding seen in cells or lysates may run through a third protein. Some binding calls cover weakened binding; strength is not graded here. For part of these data: Sequences can lack the tags named with a protein.
# T1: FLAG-tagged CDIN1 (F-CDIN1) (UniProt Q9Y2V0)
# T1 sequence: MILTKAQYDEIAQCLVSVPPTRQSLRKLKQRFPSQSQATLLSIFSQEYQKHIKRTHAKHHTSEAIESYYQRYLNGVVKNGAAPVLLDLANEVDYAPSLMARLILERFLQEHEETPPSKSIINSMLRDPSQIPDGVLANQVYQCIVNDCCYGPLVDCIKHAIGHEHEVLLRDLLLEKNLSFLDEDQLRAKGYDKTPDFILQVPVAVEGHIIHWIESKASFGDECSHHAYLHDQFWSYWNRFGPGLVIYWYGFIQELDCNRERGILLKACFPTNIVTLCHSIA
# T2: Strep-CDAN1 HMHA1* (R541A/R544A/R548A) (human) (UniProt Q8IWY9)
# T2 sequence: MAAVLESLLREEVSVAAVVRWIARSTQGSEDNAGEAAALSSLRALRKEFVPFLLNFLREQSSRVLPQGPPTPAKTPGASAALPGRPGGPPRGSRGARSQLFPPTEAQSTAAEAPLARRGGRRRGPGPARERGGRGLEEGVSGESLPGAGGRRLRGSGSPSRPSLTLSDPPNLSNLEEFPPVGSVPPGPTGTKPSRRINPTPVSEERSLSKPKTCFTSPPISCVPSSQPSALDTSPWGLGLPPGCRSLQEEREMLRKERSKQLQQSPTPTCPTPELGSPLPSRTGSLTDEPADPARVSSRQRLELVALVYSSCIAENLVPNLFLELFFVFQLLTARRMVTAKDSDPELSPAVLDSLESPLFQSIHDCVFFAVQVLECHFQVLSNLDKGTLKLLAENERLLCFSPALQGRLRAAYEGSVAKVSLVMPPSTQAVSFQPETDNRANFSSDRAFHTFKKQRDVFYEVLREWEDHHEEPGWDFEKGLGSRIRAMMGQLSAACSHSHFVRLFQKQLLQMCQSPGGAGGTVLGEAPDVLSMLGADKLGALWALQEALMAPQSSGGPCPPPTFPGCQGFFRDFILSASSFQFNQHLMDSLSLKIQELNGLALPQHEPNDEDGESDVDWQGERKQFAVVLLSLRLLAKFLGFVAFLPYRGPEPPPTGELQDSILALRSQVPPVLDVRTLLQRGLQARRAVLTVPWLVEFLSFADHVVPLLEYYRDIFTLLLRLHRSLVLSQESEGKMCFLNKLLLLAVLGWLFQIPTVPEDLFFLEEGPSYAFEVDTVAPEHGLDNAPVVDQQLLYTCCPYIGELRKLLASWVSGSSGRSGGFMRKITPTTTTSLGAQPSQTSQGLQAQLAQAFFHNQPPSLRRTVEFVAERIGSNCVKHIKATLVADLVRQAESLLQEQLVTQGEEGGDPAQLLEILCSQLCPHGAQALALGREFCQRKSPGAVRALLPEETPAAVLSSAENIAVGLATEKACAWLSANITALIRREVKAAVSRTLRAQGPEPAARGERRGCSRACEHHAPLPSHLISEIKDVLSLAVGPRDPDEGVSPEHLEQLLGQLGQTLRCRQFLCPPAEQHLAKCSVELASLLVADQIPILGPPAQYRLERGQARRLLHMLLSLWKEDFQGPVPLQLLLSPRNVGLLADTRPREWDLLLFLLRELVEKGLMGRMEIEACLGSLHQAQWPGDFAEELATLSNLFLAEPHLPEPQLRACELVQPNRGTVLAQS
# T3: HMHA1* BDA1* ST-CDAN1 (human) (UniProt Q8IWY9)
# T3 sequence: T2 sequence with M824A, R825A, K826A
# T4: endogenous CDIN1 with a C-terminal HaloTag-FLAG (HF) tag (human (endogenous in Flp-In 293 T-REx)) (UniProt Q9Y2V0)
# T4 sequence: T1 sequence
# B1: Strep-tagged CDAN1 (ST-CDAN1), wildtype (natural protein, human)
# chain: T2 sequence with A541R, A544R, A548R
# notes: Codanin-1 (CDAN1), human, 1227 residues; cDNA from Horizon Discovery/Dharmacon, its point mutation S421F corrected; same construct used in Expi293 and in Flp-In 293 T-REx cells; dimer by SEC-MALS and cryo-EM; also called Strep-CDAN1; WT CDAN1; source: Expi293, transiently transfected, in lysate and purified in complexes (anti-FLAG, Strep-Tactin); Flp-In 293 T-REx, transiently transfected, in …
# Tests used:
# [1] = target: T1, FLAG-tagged CDIN1 (F-CDIN1); assay: co-IP; anti-FLAG IP (first step of the tandem purification) from lysates of transiently transfected Expi293 cells; IP buffer with 1% Triton X-100, 4 °C; elution with 3xFLAG peptide; immunoblotting
# [2] = target: FLAG-tagged ASF1A (F-ASF1A) (human) (UniProt Q9Y294); assay: as above
# [3] = target: T2, Strep-CDAN1 HMHA1* (R541A/R544A/R548A) (human); assay: pull-down; Strep-Tactin pulldown of ST-CDAN1 variants co-transfected with FLAG-tagged ASF1A or ASF1B variants in Flp-In 293 T-REx cells; immunoblotting; IP buffer with 1% Triton X-100, 1 hr at 4 °C
# [4] = target: T3, HMHA1* BDA1* ST-CDAN1 (human); assay: as above
# [5] = target: T4, endogenous CDIN1 with a C-terminal HaloTag-FLAG (HF) tag (human (endogenous in Flp-In 293 T-REx)); assay: co-IP; anti-FLAG M2 agarose IP of endogenously HaloTag-FLAG tagged CDAN1 or CDIN1 from Flp-In 293 T-REx lysates; IP buffer 50 mM HEPES pH 7.5, 100 mM KOAc, 2.5 Mg(OAc)2, 1% Triton X-100, 1 mM DTT; immunoblotting
molecule,measurement,setting,value
HA-tagged ASF1A (from UniProt Q9Y294 1-204),binding,[1],binds
endogenous ASF1A (from UniProt Q9Y294 1-204) (other; other documents disagree on this pair),binding,[2],binds
FLAG-ASF1B RQ (R23Q) (from UniProt Q9NVP2 1-202),binding,[3],no binding
FLAG-ASF1B QN (S5Q/L7N) (from UniProt Q9NVP2 1-202),binding,[4],no binding
same,binding,[3],binds
B1,binding,[5],binds
